The text below walks through data of the RNAGym collection of RNA variant scans (doi:10.1093/nar/gkz1192).

The chains are these.
B1: CPEB3 Ribozyme (parent)
chain: UAACAGGGGGCCACAGCAGAAGCGUUCACGUCGCAGCCCCUGUCAGAUUCUGGUGAAUCUGCGAAUUCUGCUGUAUAUCUC

The source gives no read counts; variants with many changes may rest on few reads.

The variants in the data set derive from B1. In words: self-cleavage, relative activity (ratio to wild type); higher = more cleavage; in vitro, sequencing. The gist of the method: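 CPEB3 self-cleaving ribozyme mutant libraries were made by rounds of error-prone PCR, barcoded, and transcribed in vitro with T7 RNA polymerase for 5 hours at 37°C. Cleavage occurred during transcription and a 15 min DNase I step before EDTA stop. RNAs were reverse transcribed with template switching and Illumina-sequenced, with DNA sequencing mapping barcodes to variants. Relative activity is the variant's cleaved/total read fraction divided by wild type's (minimum 5 reads), averaged across three batches.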
Turning to C32G A45G U48C U69C G70C U78C, the self-cleavage was 0.09.
Next, G33A A56G A64G U72C: 0.15.
Turning to U31C U49C U67C U74C, the self-cleavage came to 0.11.
Next, C34U U49C A56U A64G: 0.11.
The figure for G33A U41A A47G is 0.64; for G33C U67A U78C it is 0.04; for G33U A57G U60C U67C it is 0.08.
For the variant C34U A35G C38U, the self-cleavage was found to be 0.43.
For the variant U31C U43C U66C, the self-cleavage turned out to be 0.46.
For G33A U51G C62G U66C U69A, the self-cleavage was 0.27.
Next, C32A U43C A45G U51C U66C U78C U80A: 0.06; G33C A35G U74A: 0.03; A35C G55C G70C U78C C79U: 0.14.
Next, U31G U48C U60C: 0.13.
Next, G33A U51C U60C U76A: 0.17; G33U A57G A64U: 0.07; C32U U48C U54A: 0.14.
In the case of U31G U49C G53A U76C, the self-cleavage came to 0.32.
Next, U31G C32G U54C U66C: 0.14; G33A A35G U43C A77G: 0.15.
Next, G33C U41A U78A: 0.17.
Next, C34G U41C U72C: 0.06; C32A C40U U51C A65G: 0.09.
Consider G33A U69C U78C C79U, for which the self-cleavage was 0.11.
The figure for C32U U41C U66C U78C is 0.12; for U31G A45C A56G A64G it is 0.23.
Next, U31C U72C A75C: 1.11; U31C U69A U72A: 0.4.
Next, G33U A45G A56U U66C U80G: 0.11.
Regarding C34U U41A U49C G53A A64G U66C U67A, the self-cleavage is 0.02.
As for G33A A35U A45U A64C U80A, the self-cleavage worked out at 0.06.
Regarding C32U A35U A57G, the self-cleavage stood at 0.18.
The figure for U31C U48C A64G is 0.16.
Next, U31G A57U U66A U67C: 0.09; U31C U49C A56G: 0.73.
The figure for C32A U60A U76C is 0.37; for C32U U54C A56G A75G it is 0.12.
Regarding C32U U78C U80C, the self-cleavage is 0.31.
G33A A45U U51A U67C: the self-cleavage turned out to be 0.05.
Next, G33A A35U U69A: 0.14; U31C U43A A45G U51C U58C: 0.06; C32G U48A U54A U72A: 0.12.
The figure for G33C U41A U48C A64G is 0.14.
Next, C32U G33U U48C: 0.41.
In the case of G33A U41A A47G U60C U66C, the self-cleavage was 0.09.
Next, G33A A35G U60A C71G A75G: 0.08; C32U A35G C40U U41G A64G U67A: 0.06.
The figure for C32U U60A U67C is 0.12; for U31C U60C G73A it is 0.6; for C32A U43C U51C it is 0.24.
The figure for C34G A45G U60C is 0.3; for U31C U60C U72C it is 0.27.
Turning to C32A U48C U51C, the self-cleavage came to 0.28.
For the variant U31C U43C C50A, the self-cleavage amounted to 0.2.
With G33A U43C U60C U80C, the self-cleavage worked out at 0.19.
The figure for U31C U43A A65G U78C U80C is 0.43; for U31C U54A A65G U80C it is 0.33; for G33A A45G A57G U60C U66C U80C it is 0.25.
For the variant U31G U54C U72C, the self-cleavage came out at 0.89.
Next, G33A U41C A77U U78C: 0.06; U31G G33A A47G A64G U78C: 0.17; G33A G36A U43C U51A U66C U69C U76C: 0.12.
With C34A A35C A57G C62U U76G, the self-cleavage came out at 0.03.
Next, U31C U43C A47U U60C: 0.09; U31C U43G U80C: 0.38.
The figure for C34U U41A C59A is 0.14; for C32A A56G U66C it is 0.15.
On to C34U U43A A56G A64G, for which the self-cleavage was determined as 0.26.
The figure for C32U G52C U60A is 0.14; for C34G U78C C79U U80A it is 0.11.
Next, C32U U49C U51A U72G: 0.09; C34U G70A U72C: 0.12.
Next, C32A C40A A57G: 0.1.
In the case of C34G A56G A64G, the self-cleavage was 0.29.
The figure for U31C U51C U66A is 0.21; for C34A U43C C44U A45G A57G it is 0.05; for G33A U41C A47G it is 0.33.
Next, G33A A35G U60C: 0.13.
The figure for A35C U41C U76A is 0.82; for G33U A35G A64G U66C it is 0.1.
Consider C34G U76C A77G, for which the self-cleavage came to 0.07.
Turning to U31G U66C U76C, the self-cleavage came to 0.2.
The figure for U31C U54A C62A is 0.44.
